{"source": "PubChem BioAssay AID588855", "about": "(National Center for Advancing Translational Sciences (NCATS), 2011)", "note": "Screen size: about 410,000 compounds; about 5,000 (1.2%) were called active. The shares of active, inactive and inconclusive entries below differ from those in the screen. Calls follow the shape of the dose curve; as a rule, active = well fitted inhibition curve with a large enough effect; inconclusive = small, poorly fitted or top-dose-only effect; inactive = no such curve, though single readings can be large or run the other way. A potency beside an inconclusive call is a rough fit, not a confirmed value. % is scaled to controls: 0 for no effect and ±100 for the full control effect; potency is read from the fitted curve at half-maximal effect; tags tell the direction and shape of the fitted curve.", "data": [{"experiment": "qHTS for Inhibitors of TGF-b; also: nearly all actives have a fitted effect of over 65% in size", "details": "HepG2 CAGA-GFP TGF-b/SMAD3 reporter, GFP fluorescence, 18 h, TGF-beta stimulated, 500 pg/mL final; series mostly up to 46.1 µM; activity, negative = inhibition: at the top concentration", "method_in_brief": "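Per well, imaged GFP fluorescence of HEPG2 CAGA-GFP cells gives the signal; cells get compound, then TGF-beta (500 pg/mL final), 18 h at 37 degrees C; %Activity versus -TGF-beta and +DMSO controls.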", "values": [{"smiles": "CCOc1ccc(-c2cc(C(=O)N3CCN(c4ccc(C)cc4)C(C)C3)c3ccccc3n2)cc1", "note": "(centres undefined)", "Potency": "inconclusive: 12.6 µM [inhibitor, single point]"}, {"smiles": "COc1ccccc1CN1CC(C(=O)NCc2cc(C)on2)CCC1=O", "note": "(centres undefined)", "Potency": "inconclusive: 0.631 µM [inhibitor, full curve, poor fit]"}, {"smiles": "CC(=O)Nc1ccc(-c2ccnc3c2CC(C(=O)Nc2cccc(OC(F)(F)F)c2)O3)cc1", "note": "(centres undefined)", "Potency": "inconclusive: 12.6 µM [inhibitor, single point]"}, {"smiles": "CN(C)[C@@H]1CCC[C@H]1OC(=O)C(c1ccccc1)c1ccccc1", "activity, negative = inhibition": "inactive: -24.1%"}, {"smiles": "CC(C)c1ccc(N=C2N=C(N)c3ccccc32)cc1", "Potency": "inconclusive: 35.5 µM [inhibitor, single point]"}, {"smiles": "CC(C)(C)S(=O)N1Cc2cc(C(=O)NCC(F)(F)F)nc(-c3cccc(-c4cccc(F)c4)c3)c2[C@H]1CCO", "note": "(some centres undefined)", "Potency": "inconclusive: 11.2 µM [inhibitor, partial curve, poor fit]"}, {"smiles": "O=C(N/N=C/c1cccc(OCc2ccccc2)c1)c1ccc(Br)cc1", "activity, negative = inhibition": "inactive: 7%"}, {"smiles": "COc1ccc(NC(=S)NC(NC(=O)CCl)C(Cl)(Cl)Cl)c([N+](=O)[O-])c1", "note": "(centres undefined)", "Potency": "inconclusive: 14.1 µM [inhibitor, partial curve, poor fit]"}, {"smiles": "O=C(NCCC1=CCCCC1)c1[nH]c(C(F)(F)F)nc1-c1ccccc1", "Potency": "inconclusive: 35.5 µM [inhibitor, partial curve, poor fit]"}, {"smiles": "Cc1cc(N(C)Cc2ccccc2)nc(-c2ccccc2)n1", "activity, negative = inhibition": "inactive: 0%"}, {"smiles": "CC(=O)Nc1ccc(NC(=S)NC(=O)c2ccc(-c3ccccc3)cc2)cc1", "activity, negative = inhibition": "inactive: -11.7%"}, {"smiles": "COc1ccc(OC)c(NC(=O)CC2C(=O)NCCN2C(=O)Nc2cccc(Cl)c2)c1", "note": "(centres undefined)", "activity, negative = inhibition": "inactive: 1.87%"}, {"smiles": "Cc1ccc(N(C(=O)Cn2nnc3ccccc32)C(C(=O)NCc2ccccc2)c2ccccn2)cc1", "note": "(centres undefined)", "activity, negative = inhibition": "inactive: -15.8%"}, {"smiles": "CC(C)c1nc(SCC(=O)N2c3ccccc3CC2C)c2ccccc2n1", "note": "(centres undefined)", "Potency": "inconclusive: 11.2 µM [inhibitor, partial curve, poor fit]"}, {"smiles": "CCN(CC)CCC(=O)N1c2ccccc2Sc2ccc(Cl)cc21", "Potency": "inconclusive: 14.1 µM [inhibitor, single point]"}, {"smiles": "COc1ccc(NC(=O)Cc2cccs2)cc1S(=O)(=O)N1CCCCC1", "Potency": "inconclusive: 35.5 µM [inhibitor, single point]"}, {"smiles": "CC(C)(C)c1ccc(C(=O)CC(Sc2ccc(Cl)cc2)C(=O)O)cc1", "note": "(centres undefined)", "Potency": "inconclusive: 25.1 µM [inhibitor, single point]"}, {"smiles": "COc1cccc(OC)c1C(=O)NC(=S)NCc1ccccc1", "activity, negative = inhibition": "inactive: 2.18%"}, {"smiles": "O=C(NC(=S)NNC(=O)c1ccccc1O)c1ccc(F)cc1", "activity, negative = inhibition": "inactive: -3.01%"}, {"smiles": "CCOc1cc(C(=O)NC(C)Cc2cccs2)cc(OCC)c1OCC", "note": "(centres undefined)", "activity, negative = inhibition": "inactive: -5.25%"}, {"smiles": "Cc1cccnc1C(NC(=O)C1CCN(CCOc2ccc(F)cc2)CC1)c1ccc(Cl)cc1", "note": "(centres undefined)", "Potency": "inconclusive: 25.1 µM [inhibitor, single point]"}, {"smiles": "Cc1ccc(NC(=O)CNCC2CCCCC2)cc1S(=O)(=O)N(C)C", "Potency": "inconclusive: 17.8 µM [inhibitor, single point]"}, {"smiles": "Nc1cc(C(=O)O)c(N)c2c1C(=O)c1ccccc1C2=O", "Potency": "inconclusive: 12.6 µM [inhibitor, single point]"}, {"smiles": "COc1ccc(-c2c(-c3ccc4c(c3)OCO4)noc2-c2ccsc2)cn1", "Potency": "inconclusive: 15.8 µM [inhibitor, partial curve, poor fit]"}, {"smiles": "CC(OC(=O)Cc1coc2ccc3ccccc3c12)C(=O)NC(N)=O", "note": "(centres undefined)", "Potency": "inconclusive: 5.62 µM [inhibitor, single point]"}, {"smiles": "O=C(CSc1ccc(-c2cccc([N+](=O)[O-])c2)nn1)NC1CCCC1", "activity, negative = inhibition": "inactive: 9.73%"}, {"smiles": "O=C(CCC1CCCCC1)NCCN1C2=NC[C@H](Cc3ccccc3)N2C[C@H]1Cc1ccc(O)cc1", "Potency": "inconclusive: 11.2 µM [inhibitor, partial curve]"}, {"smiles": "Cn1cnc([N+](=O)[O-])c1S(=O)(=O)Oc1cccc2ccccc12", "Potency": "inconclusive: 35.5 µM [inhibitor, partial curve, poor fit]"}, {"smiles": "O=C1/C(=C/c2ccccc2)CCC1C1CCCC1", "note": "(centres undefined)", "activity, negative = inhibition": "inactive: 20.4%"}, {"smiles": "COc1cc(SC)ccc1C(=O)NC1CCCc2ccccc21", "note": "(centres undefined)", "Potency": "inconclusive: 22.4 µM [inhibitor, single point]"}, {"smiles": "CCN1C(=O)[C@H]2[C@@H](c3ccc(C)cc3)N3C(=O)N(c4cccc(F)c4)C(=O)[C@@]3(Cc3ccc(Cl)cc3)[C@H]2C1=O", "Potency": "inconclusive: 35.5 µM [inhibitor, single point]"}, {"smiles": "Cc1ccc(N(CC(=O)N2CCN(c3cc(Cl)ccc3C)CC2)S(=O)(=O)c2c(C)noc2C)cc1", "Potency": "inconclusive: 8.91 µM [inhibitor, partial curve]"}, {"smiles": "CCN(CC)CCOc1ccc2c(c1)C(=NNC(=O)c1ccccn1)c1cc(OCCN(CC)CC)ccc1-2", "Potency": "inconclusive: 35.5 µM [inhibitor, single point]"}, {"smiles": "CC(=O)Nc1cccc(/C(C)=N/Nc2nc3ccccc3s2)c1", "activity, negative = inhibition": "inactive: -7.11%"}, {"smiles": "Clc1ccc(-c2nc3ccccn3c2Nc2ccc3c(c2)OCCO3)s1", "activity, negative = inhibition": "inactive: -1.97%"}, {"smiles": "O=C(NCc1nnc(SCc2ccccc2)n1-c1ccc(F)cc1)C12CC3CC(CC(C3)C1)C2", "Potency": "inconclusive: 35.5 µM [inhibitor, single point]"}, {"smiles": "Cc1ccc2nc(NC(=O)CSc3nccn3Cc3ccccc3)sc2c1", "Potency": "inconclusive: 35.5 µM [inhibitor, single point]"}, {"smiles": "CCCCNC(=O)C(=O)NCC1CCCN1S(=O)(=O)c1cccs1", "note": "(centres undefined)", "activity, negative = inhibition": "inactive: 0%"}, {"smiles": "O=C(c1ccc(Cl)c([N+](=O)[O-])c1)N1CCN(Cc2ccc3c(c2)OCO3)CC1", "Potency": "inconclusive: 8.91 µM [inhibitor, partial curve, poor fit]"}, {"smiles": "Cc1ccc2c(/C=C/c3ccc(N(C)C)cc3)ccnc2c1", "Potency": "inconclusive: 11.2 µM [inhibitor, single point]"}, {"smiles": "CCN(CC)c1ccc(S(=O)(=O)Nc2cc(Cl)ccc2Cl)cc1NC(=S)NC(=O)C1CCCC1", "Potency": "inconclusive: 15.8 µM [inhibitor, single point]"}, {"smiles": "CC(C)Cc1nc2oc3c(Cl)ncnc3c2c2c1CCC2", "activity, negative = inhibition": "inactive: -29.6%"}, {"smiles": "CNc1nc(N/N=C/c2ccc([N+](=O)[O-])cc2)nc(Nc2ccccc2)n1", "Potency": "inconclusive: 17.8 µM [inhibitor, single point]"}, {"smiles": "CCc1ccc(Sc2cc(C(=O)NCCCN3CCCC(C)C3)c3ccccc3n2)cc1", "note": "(centres undefined)", "Potency": "inconclusive: 28.2 µM [inhibitor, single point]"}, {"smiles": "Cc1ccccc1CCNCc1c(C(=O)O)c(C)n(Cc2c(F)cccc2Cl)c1C", "activity, negative = inhibition": "inactive: -3.05%"}, {"smiles": "CC(C)NC(=O)C1CCCN(S(=O)(=O)c2cccc3nonc23)C1", "note": "(centres undefined)", "activity, negative = inhibition": "inactive: 5.89%"}, {"smiles": "CCCCCCSc1ccc([C@@H]2[C@H]3C(=O)N(CC)C(=O)[C@H]3[C@]3(C(=O)OC)CCCN23)cc1", "Potency": "inconclusive: 35.5 µM [inhibitor, single point]"}, {"smiles": "O=C(Oc1cccc([N+](=O)[O-])c1)c1cc(-c2ccccc2)nc2ccccc12", "Potency": "inconclusive: 35.5 µM [inhibitor, single point]"}, {"smiles": "CN(C)CCCNc1ccc(-c2cc(Nc3cccc(Cl)c3)ncn2)cn1", "Potency": "inconclusive: 35.5 µM [inhibitor, single point]"}, {"smiles": "O=C(c1ccc(Nc2cccc(C(F)(F)F)c2)nc1)N1CCCC1", "activity, negative = inhibition": "inactive: -16.5%"}, {"smiles": "CCOc1ccc(NC(=O)c2cnn3c(C(F)F)cc(-c4ccc(C)cc4)nc23)cc1", "activity, negative = inhibition": "inactive: -2.31%"}, {"smiles": "Cc1c(Cl)cccc1NC(=O)CN1C(=O)CSc2ccc(S(=O)(=O)N3CCCC3)cc21", "activity, negative = inhibition": "inactive: -20.4%"}, {"smiles": "O=C(COC(=O)C1Cc2ccccc2CN1C(=O)c1ccccc1Cl)Nc1ccc(N2CCOCC2)cc1", "note": "(centres undefined)", "Potency": "inconclusive: 3.16 µM [inhibitor, partial curve, poor fit]"}, {"smiles": "COc1ccc(/C=N\\NC(=O)C2CCCC2)cc1Br", "activity, negative = inhibition": "inactive: -4.32%"}, {"smiles": "CC1CC(=O)Nc2ccccc2N1C(=O)Nc1ccccc1", "note": "(centres undefined)", "Potency": "inconclusive: 35.5 µM [inhibitor, single point]"}, {"smiles": "COCCn1c(SCC(=O)Nc2ccc(NC(C)=O)cc2)nc2ccccc2c1=O", "Potency": "inconclusive: 2.51 µM [inhibitor, full curve, poor fit]"}, {"smiles": "Cc1ccc2nc(C)c(C(=O)NN=C3CCCCCC3)n2c1", "activity, negative = inhibition": "inactive: -14%"}, {"smiles": "Cc1cc(C)c(S(=O)(=O)Nc2nccs2)c(C)c1", "Potency": "inconclusive: 35.5 µM [inhibitor, single point]"}, {"smiles": "COC(=O)C(Cc1c[nH]c2ccccc12)NC(=O)c1cc(-c2ccc(OC)c(OC)c2)oc1C", "note": "(centres undefined)", "Potency": "inconclusive: 22.4 µM [inhibitor, single point]"}, {"smiles": "CN(CC(=O)NCCc1ccccc1)S(=O)(=O)c1cccc2nsnc12", "activity, negative = inhibition": "inactive: 4.21%"}, {"smiles": "CCc1ccc(-c2cc(C)no2)cc1S(=O)(=O)NCCc1ccccc1", "Potency": "inconclusive: 14.1 µM [inhibitor, single point]"}, {"smiles": "CC1CCCN(CCCNC(=O)CN2C(=O)COc3ccccc32)C1", "note": "(centres undefined)", "activity, negative = inhibition": "inactive: 7.91%"}, {"smiles": "CCCc1ncc(CN2CCC(C(=O)Nc3cccc(-c4cscn4)c3)CC2)cn1", "Potency": "inconclusive: 12.6 µM [inhibitor, single point]"}, {"smiles": "COc1ccccc1C(=O)N/C(=C/c1ccc(Br)cc1)C(=O)N1CCCC1", "Potency": "inconclusive: 11.2 µM [inhibitor, partial curve, poor fit]"}, {"smiles": "OB(O)c1cc2ccccc2o1", "activity, negative = inhibition": "inactive: 1.85%"}, {"smiles": "CCn1cc(CN2CCN(CCC(C)C)C(CCO)C2)c2ccccc21", "note": "(centres undefined)", "activity, negative = inhibition": "inactive: -15.7%"}, {"smiles": "COc1cccc(OCCn2cc(C(=O)c3ccco3)c3ccccc32)c1", "Potency": "inconclusive: 35.5 µM [inhibitor, single point]"}, {"smiles": "COc1ccc(-c2cc(=O)c3cc(F)ccc3[nH]2)cc1", "activity, negative = inhibition": "inactive: 11.7%"}, {"smiles": "COc1ccccc1-c1ccc2c(c1)C(C)(Cc1cccc(C#N)c1)C(=O)N2", "note": "(centres undefined)", "Potency": "inconclusive: 35.5 µM [inhibitor, single point]"}]}]}
